The supplement of paper PMC7125110
± gives the standard error. This sample is rich in variants without activity.

B1: glmS ribozyme (parent)
chain: AUAAAAGCGCCAGAACUACAGAAAUGUAGUUGACGAGGAGGAGGUUUAUCGAAUUUUCGGCGGAUGCCUCCAAA

Assays:
Details in all cases: with glucosamine-6-phosphate
[1] = variants of: B1; experiment: self-cleavage kobs at 40 uM GlcN6P; higher = faster cleavage; RNA array
Outline: (§1)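 Tracking of barcoded ribozyme variants used a hybridised Cy3 probe at 37 °C, after in situ transcription by E. coli RNA polymerase on sequenced MiSeq chips. The flowed solution held 40 μM to 10 mM glucosamine-6-phosphate in HEPES/KCl/Mg(OAc)2 buffer, and imaging ran over ~14 h. kobs was taken from exponential decay fits of normalised per-tile medians, and kcat and KM from weighted Michaelis–Menten fits.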

[2] = variants of: B1; experiment: self-cleavage kobs at 2500 uM GlcN6P; higher = faster cleavage; RNA array
Outline: as §1

[3] = variants of: B1; experiment: self-cleavage kobs at 10000 uM GlcN6P; higher = faster cleavage; RNA array
Outline: as §1

[4] = variants of: B1; experiment: self-cleavage kobs at 160 uM GlcN6P; higher = faster cleavage; RNA array
Outline: as §1

[5] = variants of: B1; experiment: self-cleavage kobs at 640 uM GlcN6P; higher = faster cleavage; RNA array
Outline: as §1

Variant | self-cleavage kobs at 40 uM GlcN6P [1] [s⁻¹] | self-cleavage kobs at 2500 uM GlcN6P [2] [s⁻¹] | self-cleavage kobs at 10000 uM GlcN6P [3] [s⁻¹] | self-cleavage kobs at 160 uM GlcN6P [4] [s⁻¹] | self-cleavage kobs at 640 uM GlcN6P [5] [s⁻¹]
U45A C67A | 0.000364 ± 5.5e-05 | 0.00568 ± 0.0022 | 0.00719 ± 0.0014 | – | –
A48C C71G | < 1e-05 | – | – | < 1e-05 | –
A48U C61U C71U | < 1e-05 | – | < 1e-05 | – | –
U46C C50G | < 1e-05 | – | – | – | < 1e-05
U46C U56G | 5.6e-05 ± 9.5e-06 | 0.00128 ± 0.00017 | 0.00164 ± 0.00018 | 0.000159 ± 3e-05 | 0.000736 ± 8.1e-05
U47G G62C C68U C71U | < 1e-05 | – | – | – | –
U45A G63A | < 1e-05 | – | < 1e-05 | < 1e-05 | < 1e-05
U45G C68A | < 1e-05 | – | – | – | –
U47G C61U | < 1e-05 | – | – | – | –
G44U U45C | < 1e-05 | – | – | – | –
U46A G59C | < 1e-05 | < 1e-05 | < 1e-05 | < 1e-05 | –
A48C A52U C70U | < 1e-05 | – | < 1e-05 | – | –
A48C A52U C70A | < 1e-05 | – | – | – | –
U49C C71A | < 1e-05 | – | – | – | –
U47A U56C C70G | < 1e-05 | – | – | – | –
U45C A52C | < 1e-05 | < 1e-05 | < 1e-05 | – | –
A48G G60U | < 1e-05 | < 1e-05 | < 1e-05 | < 1e-05 | < 1e-05
A48G G60A | < 1e-05 | < 1e-05 | < 1e-05 | < 1e-05 | < 1e-05
U45C G60U A64G C71G | < 1e-05 | < 1e-05 | < 1e-05 | – | < 1e-05
A48G U57C | < 1e-05 | – | – | < 1e-05 | –
U45A G62C | < 1e-05 | < 1e-05 | – | – | –
U47C A64C | < 1e-05 | – | – | < 1e-05 | –
U47C A64G | 0.000131 ± 1.7e-05 | 0.0019 ± 0.00068 | 0.00499 ± 0.00066 | 0.000324 ± 9e-05 | 0.00115 ± 0.00027

Variant | self-cleavage kobs at 40 uM GlcN6P [1] [s⁻¹] | self-cleavage kobs at 2500 uM GlcN6P [2] [s⁻¹] | self-cleavage kobs at 10000 uM GlcN6P [3] [s⁻¹] | self-cleavage kobs at 160 uM GlcN6P [4] [s⁻¹] | self-cleavage kobs at 640 uM GlcN6P [5] [s⁻¹]
A48G G66A | < 1e-05 | – | – | – | –
A48U U57C | < 1e-05 | < 1e-05 | < 1e-05 | < 1e-05 | –
U49C G51U | < 1e-05 | < 1e-05 | < 1e-05 | – | –
U47A A53U | 0.000547 ± 6.1e-05 | – | – | – | –
U46G G51U | < 1e-05 | < 1e-05 | < 1e-05 | < 1e-05 | < 1e-05
A48U G59U | < 1e-05 | – | < 1e-05 | < 1e-05 | < 1e-05
A48U G59A | < 1e-05 | < 1e-05 | < 1e-05 | < 1e-05 | < 1e-05
A48C U49A C50A U65A C67G | < 1e-05 | – | – | – | –
G44U C70G C71A | < 1e-05 | – | < 1e-05 | – | –
U47C U65G | 4.89e-05 ± 1.1e-05 | 0.00189 ± 0.00047 | 0.00312 ± 0.0006 | – | 0.000565 ± 0.00011
U47C U65C | < 1e-05 | – | < 1e-05 | – | –
U49A C58G | < 1e-05 | – | < 1e-05 | – | –
G44U U47A | < 1e-05 | – | – | – | –
U46G U56A | 5.1e-05 ± 7.3e-06 | – | 0.00224 ± 0.00042 | – | 0.000601 ± 0.00017
G44U U69G | < 1e-05 | < 1e-05 | < 1e-05 | < 1e-05 | < 1e-05
G44U A64C | < 1e-05 | < 1e-05 | – | < 1e-05 | < 1e-05
G44C A52G U65C C67U | < 1e-05 | < 1e-05 | < 1e-05 | – | < 1e-05
U46A G63U | < 1e-05 | – | < 1e-05 | < 1e-05 | < 1e-05
G44C U46G | < 1e-05 | – | – | – | –
U47C U56G | 7.97e-05 ± 1.3e-05 | 0.00108 ± 0.00025 | 0.00243 ± 0.0003 | 0.000196 ± 4e-05 | 0.000708 ± 8.7e-05
A48G G63C | < 1e-05 | < 1e-05 | < 1e-05 | < 1e-05 | –
U46G G63C | < 1e-05 | < 1e-05 | < 1e-05 | < 1e-05 | < 1e-05
